# Reference: the supplement of paper PMC8728848
# The other results are listed elsewhere or left out.
# B1: Nictaba (Nicotiana tabacum), Q94EW1 (protein)
# chain: MQGQWIAARDLSITWVDNPQYWTWKTVDPNIEVAELRRVAWLDIYGKIETKNLIRKTSYAVYLVFKLTDNPRELERATASLRFVNEVAEGAGIEGTTVFISKKKKLPGELGRFPHLRSDGWLEIKLGEFFNNLGEDGEVEMRLMEINDKTWKSGIIVKGFDIRPN
# How the values were obtained:
# Experiment in all cases: glycan array binding signal (z-score within array); higher = stronger binding
# Conditions in all cases: glycan notation: IUPAC condensed, linker removed
# [1] = molecular target: Gal(b1-4)GlcNAc(b1-2)Man(a1-6)[GlcNAc(b1-2)Man(a1-3)]Man(b1-4)GlcNAc(b1-4)GlcNAc
# Method in brief: (§1)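 Arrays were curated from the Consortium for Functional Glycomics database, 3228 in total, and kept only where the protein sequence was available. Binding is expressed as a within-array Z-score. This score was averaged across arrays of the same protein sequence at different concentrations or buffers and across linkers, and negative values can be read as non-binding.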
# [2] = molecular target: Gal(b1-4)GlcNAc(b1-2)Man(a1-6)[Man(a1-3)]Man(b1-4)GlcNAc(b1-4)GlcNAc
# Method in brief: as §1
# [3] = molecular target: Gal(b1-4)GlcNAc(b1-2)[Gal(b1-4)GlcNAc(b1-4)]Man(a1-3)[Gal(b1-4)GlcNAc(b1-2)Man(a1-6)]Man(b1-4)GlcNAc(b1-4)GlcNAc
# Method in brief: as §1
# [4] = molecular target: Gal(b1-4)GlcNAc(b1-2)[Gal(b1-4)GlcNAc(b1-4)]Man(a1-3)[Gal(b1-4)GlcNAc(b1-2)[Gal(b1-4)GlcNAc(b1-6)]Man(a1-6)]Man(b1-4)GlcNAc(b1-4)GlcNAc
# Method in brief: as §1
# [5] = molecular target: Gal(b1-4)GlcNAc(b1-2)[Gal(b1-4)GlcNAc(b1-4)]Man(a1-3)[GlcNAc(b1-4)][Gal(b1-4)GlcNAc(b1-2)Man(a1-6)]Man(b1-4)GlcNAc(b1-4)GlcNAc
# Method in brief: as §1
# [6] = molecular target: Gal(b1-4)GlcNAc(b1-2)[Gal(b1-4)GlcNAc(b1-4)]Man(a1-3)[GlcNAc(b1-4)][Gal(b1-4)GlcNAc(b1-2)[Gal(b1-4)GlcNAc(b1-6)]Man(a1-6)]Man(b1-4)GlcNAc(b1-4)GlcNAc
# Method in brief: as §1
# [7] = molecular target: Gal(b1-4)GlcNAc(b1-2)[Gal(b1-4)GlcNAc(b1-6)]Man(a1-6)[Gal(b1-4)GlcNAc(b1-2)Man(a1-3)]Man(b1-4)GlcNAc(b1-4)GlcNAc
# Method in brief: as §1
# [8] = molecular target: Gal(b1-4)GlcNAc(b1-2)[Gal(b1-4)GlcNAc(b1-6)]Man(a1-6)[Gal(b1-4)GlcNAc(b1-2)Man(a1-3)]Man(b1-4)GlcNAc(b1-4)[Fuc(a1-6)]GlcNAc
# Method in brief: as §1
# [9] = molecular target: Gal(b1-4)GlcNAc(b1-2)[Gal(b1-4)GlcNAc(b1-6)]Man(a1-6)[GlcNAc(b1-4)][Gal(b1-4)GlcNAc(b1-2)Man(a1-3)]Man(b1-4)GlcNAc(b1-4)GlcNAc
# Method in brief: as §1
# [10] = molecular target: Gal(b1-4)GlcNAc(b1-2)[Gal(b1-4)GlcNAc(b1-6)]Man(a1-6)[GlcNAc(b1-4)][Gal(b1-4)GlcNAc(b1-2)[Gal(b1-4)GlcNAc(b1-4)]Man(a1-3)]Man(b1-4)GlcNAc(b1-4)[Fuc(a1-6)]GlcNAc
# Method in brief: as §1
# [11] = molecular target: Gal(b1-4)GlcNAc(b1-3)Gal(b1-3)GalNAc
# Method in brief: as §1
# [12] = molecular target: Gal(b1-4)GlcNAc(b1-3)Gal(b1-3)GlcNAc
# Method in brief: as §1
# [13] = molecular target: Gal(b1-4)GlcNAc(b1-3)Gal(b1-4)Glc
# Method in brief: as §1
# [14] = molecular target: Gal(b1-4)GlcNAc(b1-3)Gal(b1-4)GlcNAc
# Method in brief: as §1
# [15] = molecular target: Gal(b1-4)GlcNAc(b1-3)Gal(b1-4)GlcNAc(b1-2)Man(a1-3)[Gal(b1-4)GlcNAc(b1-3)Gal(b1-4)GlcNAc(b1-2)Man(a1-6)]Man(b1-4)GlcNAc(b1-4)GlcNAc
# Method in brief: as §1
# [16] = molecular target: Gal(b1-4)GlcNAc(b1-3)Gal(b1-4)GlcNAc(b1-2)Man(a1-3)[Gal(b1-4)GlcNAc(b1-3)Gal(b1-4)GlcNAc(b1-2)Man(a1-6)]Man(b1-4)GlcNAc(b1-4)[Fuc(a1-6)]GlcNAc
# Method in brief: as §1
# [17] = molecular target: Gal(b1-4)GlcNAc(b1-3)Gal(b1-4)GlcNAc(b1-2)[Gal(b1-4)GlcNAc(b1-3)Gal(b1-4)GlcNAc(b1-6)]Man(a1-6)[Gal(b1-4)GlcNAc(b1-3)Gal(b1-4)GlcNAc(b1-2)Man(a1-3)]Man(b1-4)GlcNAc(b1-4)GlcNAc
# Method in brief: as §1
# [18] = molecular target: Gal(b1-4)GlcNAc(b1-3)Gal(b1-4)GlcNAc(b1-2)[Gal(b1-4)GlcNAc(b1-3)Gal(b1-4)GlcNAc(b1-6)]Man(a1-6)[Gal(b1-4)GlcNAc(b1-3)Gal(b1-4)GlcNAc(b1-2)Man(a1-3)]Man(b1-4)GlcNAc(b1-4)[Fuc(a1-6)]GlcNAc
# Method in brief: as §1
# [19] = molecular target: Gal(b1-4)GlcNAc(b1-3)Gal(b1-4)GlcNAc(b1-3)Gal(b1-4)GlcNAc
# Method in brief: as §1
# [20] = molecular target: Gal(b1-4)GlcNAc(b1-3)Gal(b1-4)GlcNAc(b1-3)Gal(b1-4)GlcNAc(b1-2)Man(a1-3)[Gal(b1-4)GlcNAc(b1-3)Gal(b1-4)GlcNAc(b1-3)Gal(b1-4)GlcNAc(b1-2)Man(a1-6)]Man(b1-4)GlcNAc(b1-4)GlcNAc
# Method in brief: as §1
# [21] = molecular target: Gal(b1-4)GlcNAc(b1-3)Gal(b1-4)GlcNAc(b1-3)Gal(b1-4)GlcNAc(b1-2)Man(a1-3)[Gal(b1-4)GlcNAc(b1-3)Gal(b1-4)GlcNAc(b1-3)Gal(b1-4)GlcNAc(b1-2)Man(a1-6)]Man(b1-4)GlcNAc(b1-4)[Fuc(a1-6)]GlcNAc
# Method in brief: as §1
# [22] = molecular target: Gal(b1-4)GlcNAc(b1-3)Gal(b1-4)GlcNAc(b1-3)Gal(b1-4)GlcNAc(b1-2)[Gal(b1-4)GlcNAc(b1-3)Gal(b1-4)GlcNAc(b1-3)Gal(b1-4)GlcNAc(b1-6)]Man(a1-6)[Gal(b1-4)GlcNAc(b1-3)Gal(b1-4)GlcNAc(b1-3)Gal(b1-4)GlcNAc(b1-2)Man(a1-3)]Man(b1-4)GlcNAc(b1-4)[Fuc(a1-6)]GlcNAc
# Method in brief: as §1
binder,measurement,setting,value
B1,glycan array binding signal (z-score),[1],1.89
same,glycan array binding signal (z-score),[2],0.889
same,glycan array binding signal (z-score),[3],0.071
same,glycan array binding signal (z-score),[4],0.157
same,glycan array binding signal (z-score),[5],0.068
same,glycan array binding signal (z-score),[6],-0.308
same,glycan array binding signal (z-score),[7],2.32
same,glycan array binding signal (z-score),[8],2.96
same,glycan array binding signal (z-score),[9],-0.292
same,glycan array binding signal (z-score),[10],-0.384
same,glycan array binding signal (z-score),[11],-0.391
same,glycan array binding signal (z-score),[12],-0.291
same,glycan array binding signal (z-score),[13],-0.269
same,glycan array binding signal (z-score),[14],-0.267
same,glycan array binding signal (z-score),[15],1.21
same,glycan array binding signal (z-score),[16],2.81
same,glycan array binding signal (z-score),[17],0.088
same,glycan array binding signal (z-score),[18],1.11
same,glycan array binding signal (z-score),[19],-0.246
same,glycan array binding signal (z-score),[20],1.54
same,glycan array binding signal (z-score),[21],2.46
same,glycan array binding signal (z-score),[22],0.076
